{"source": "paper PMC4336329", "about": "(PLoS ONE, 2015)", "note": "Screen size: about 310,000 compounds; about 2,200 (0.71%) showed an effect of 50% or more. The effect is printed as a negative number. This is one part of the list."}
{"molecular_target": "human ether-à-go-go-related gene (hERG) potassium channel (human, UniProt Q12809)", "sequence (Q12809 whole entry, looked up)": "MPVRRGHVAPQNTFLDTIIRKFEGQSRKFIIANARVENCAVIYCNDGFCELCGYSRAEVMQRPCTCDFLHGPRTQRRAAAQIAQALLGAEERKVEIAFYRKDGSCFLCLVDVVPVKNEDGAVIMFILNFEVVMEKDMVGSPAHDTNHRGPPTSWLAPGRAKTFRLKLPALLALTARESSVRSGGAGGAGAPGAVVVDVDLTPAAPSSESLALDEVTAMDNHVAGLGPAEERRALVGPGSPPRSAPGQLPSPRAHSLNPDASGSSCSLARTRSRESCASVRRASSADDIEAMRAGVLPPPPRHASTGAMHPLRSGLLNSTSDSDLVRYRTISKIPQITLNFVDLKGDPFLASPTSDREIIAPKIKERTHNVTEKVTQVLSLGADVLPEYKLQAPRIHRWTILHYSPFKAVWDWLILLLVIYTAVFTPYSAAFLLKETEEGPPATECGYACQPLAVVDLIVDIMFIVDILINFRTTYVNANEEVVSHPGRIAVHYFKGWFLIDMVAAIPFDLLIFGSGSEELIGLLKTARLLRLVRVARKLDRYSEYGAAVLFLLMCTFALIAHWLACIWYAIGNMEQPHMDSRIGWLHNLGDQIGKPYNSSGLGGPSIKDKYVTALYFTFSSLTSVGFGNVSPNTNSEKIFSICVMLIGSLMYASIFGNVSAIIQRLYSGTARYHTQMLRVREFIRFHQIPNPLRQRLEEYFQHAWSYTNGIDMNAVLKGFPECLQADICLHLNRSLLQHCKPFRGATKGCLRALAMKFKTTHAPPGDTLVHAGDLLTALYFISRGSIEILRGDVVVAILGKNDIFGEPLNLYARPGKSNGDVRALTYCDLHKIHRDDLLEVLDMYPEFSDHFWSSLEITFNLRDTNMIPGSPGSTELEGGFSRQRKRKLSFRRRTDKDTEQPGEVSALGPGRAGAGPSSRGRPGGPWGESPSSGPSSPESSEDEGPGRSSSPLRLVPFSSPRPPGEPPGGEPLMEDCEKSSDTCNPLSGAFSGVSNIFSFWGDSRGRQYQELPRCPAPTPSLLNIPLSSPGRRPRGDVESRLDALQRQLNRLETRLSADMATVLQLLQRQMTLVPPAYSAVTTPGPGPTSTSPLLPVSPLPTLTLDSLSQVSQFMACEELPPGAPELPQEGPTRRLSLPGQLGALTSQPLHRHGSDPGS", "assay": "primary screen, population patch clamp on CHO cells stably expressing hERG", "units": {"hERG current change (%, negative = inhibition) at 1uM": "%"}}
{"smiles": "Cc1ccccc1CS(=O)(=O)c1cnc2ccccc2n1", "hERG current change (%, negative = inhibition) at 1uM": 10.7}
{"smiles": "CC(=O)C1=C(O)C(=O)N(c2ccc(O)cc2)C1c1ccc(F)cc1", "note": "(stereo not shown)", "hERG current change (%, negative = inhibition) at 1uM": 15.3}
{"smiles": "C=CCn1c(SCC(=O)NCC)nnc1-c1cc2c(s1)CCC(CC)C2", "note": "(stereo not shown)", "hERG current change (%, negative = inhibition) at 1uM": 9.96}
{"smiles": "CC(=O)c1ccc(N2CCN(CC(=O)Nc3ccc(N4CCOCC4)cc3)CC2)cc1", "hERG current change (%, negative = inhibition) at 1uM": 5.88}
{"smiles": "CCN(CC)C(=O)C(=O)c1cccn1-c1ccc(C#N)cc1", "hERG current change (%, negative = inhibition) at 1uM": -1.14}
{"smiles": "O=C(CCCCl)Nc1nc(-c2ccc3c(c2)OCCO3)cs1", "hERG current change (%, negative = inhibition) at 1uM": 10.4}
{"smiles": "N#Cc1ccc(S(=O)(=O)N2CCN(C(=O)C3CC(=O)N(c4ccc5c(c4)OCCO5)C3)CC2)cc1", "note": "(stereo not shown)", "hERG current change (%, negative = inhibition) at 1uM": -4.01}
{"smiles": "O=C1OCc2nc3cc4c(cc3c(-c3ccc(F)cc3)c21)OCO4", "hERG current change (%, negative = inhibition) at 1uM": 20.4}
{"smiles": "CN1C(=O)c2cccc3c(S(=O)(=O)NCCc4ccccc4)ccc1c23", "hERG current change (%, negative = inhibition) at 1uM": -4.73}
{"smiles": "CCOC(=O)C1=C(C)NC(C)=C(C(=O)OCC)C1c1ccco1", "hERG current change (%, negative = inhibition) at 1uM": 9.56}
{"smiles": "O=S(=O)(NCc1ccco1)c1ccc(S(=O)(=O)N2CCCC2)cc1", "hERG current change (%, negative = inhibition) at 1uM": 15.4}
{"smiles": "Cc1cc(C)c2c(=O)[nH]c(SCC(=O)N3CCCCC3)nc2n1", "hERG current change (%, negative = inhibition) at 1uM": 1.86}
{"smiles": "COc1cc(CN2CCC(n3nccc3NC(=O)c3ccc4c(c3)OCO4)CC2)ccc1O", "hERG current change (%, negative = inhibition) at 1uM": 7.03}
{"smiles": "Cc1ccc(C)c(Sc2ccc(S(=O)(=O)Nc3ccc(C(=O)O)cc3)cc2)c1", "hERG current change (%, negative = inhibition) at 1uM": 4.98}
{"smiles": "O=C(CCc1ccc(S(=O)(=O)NCc2ccccc2)cc1)N1CCN(Cc2ccc3c(c2)OCO3)CC1", "hERG current change (%, negative = inhibition) at 1uM": -5.17}
{"smiles": "O=C(CSc1ccsc1[N+](=O)[O-])N1CCN(c2ccccc2)CC1", "hERG current change (%, negative = inhibition) at 1uM": 6.55}
{"smiles": "c1ccc2c(c1)oc1c(NCc3ccc4c(c3)OCO4)ncnc12", "hERG current change (%, negative = inhibition) at 1uM": 14.7}
{"smiles": "Cc1ccc(Cl)cc1N1CCN(S(=O)(=O)c2c(C)[nH]c(C)c2C(=O)N2CCCC2)CC1", "hERG current change (%, negative = inhibition) at 1uM": 10.1}
{"smiles": "C/C=C(\\C)C(=O)N1CCC(C(=O)c2ccccc2)CC1", "hERG current change (%, negative = inhibition) at 1uM": 13.9}
{"smiles": "COc1ccc(NC(=S)Nc2ccccn2)c(OC)c1", "hERG current change (%, negative = inhibition) at 1uM": 15.2}
{"smiles": "Cc1n[nH]c(C)c1S(=O)(=O)N1CCc2ccccc21.Cl", "hERG current change (%, negative = inhibition) at 1uM": 11.6}
{"smiles": "CCCCn1c(SCC(=O)NNC(=O)c2ccco2)nnc1-c1ccco1", "hERG current change (%, negative = inhibition) at 1uM": 11.4}
{"smiles": "CC(C)Nc1nc(Cl)nc(NNC(=O)C(C)Oc2ccccc2)n1", "note": "(stereo not shown)", "hERG current change (%, negative = inhibition) at 1uM": 4.7}
{"smiles": "Cc1cc(N2CCCC2)ccc1NC(=O)CN1C(=O)NC(C)(c2ccccc2)C1=O", "note": "(stereo not shown)", "hERG current change (%, negative = inhibition) at 1uM": 16}
{"smiles": "O=C1c2ccccc2C(Nc2ccc(S(=O)(=O)N3CCCCCC3)cc2)N1c1ccccn1", "note": "(stereo not shown)", "hERG current change (%, negative = inhibition) at 1uM": 10.4}
{"smiles": "O=C(O)Cc1cc2c(s1)CCCCC2", "hERG current change (%, negative = inhibition) at 1uM": 11.7}
{"smiles": "Cc1nc2c(C(=O)N3CCN(c4ccccn4)CC3)cnn2c(C)c1Cc1cccc(Cl)c1", "hERG current change (%, negative = inhibition) at 1uM": -1.34}
{"smiles": "c1ccc(-c2noc(-c3ccc4ccccc4c3)n2)nc1", "hERG current change (%, negative = inhibition) at 1uM": 17.2}
{"smiles": "CC(C)(C)C(=O)Nc1ccc(Oc2ccc3c(c2)C(=O)N(c2ccc(O)cc2)C3=O)cc1", "hERG current change (%, negative = inhibition) at 1uM": -22.8}
{"smiles": "Cc1cc(C)nc(N2CCCC(C(=O)NCCC3=CCCCC3)C2)n1", "note": "(stereo not shown)", "hERG current change (%, negative = inhibition) at 1uM": 0.0136}
{"smiles": "COc1cc2c(cc1OC)CN(c1ccc(C(F)(F)F)cn1)CC2", "hERG current change (%, negative = inhibition) at 1uM": 14.8}
{"smiles": "CCN(C(=O)Cc1c(C(=O)O)n(C)c2ccccc12)c1cccc(C)c1", "hERG current change (%, negative = inhibition) at 1uM": 10.6}
{"smiles": "CC(=O)c1cc2c(cc1NS(=O)(=O)c1ccc(F)cc1)OCO2", "hERG current change (%, negative = inhibition) at 1uM": 20.7}
{"smiles": "COC(=O)c1ccc(N=Cc2c(-c3ccccc3)[nH][nH]c2=O)cc1", "hERG current change (%, negative = inhibition) at 1uM": 12.3}
{"smiles": "CCc1cc(=O)oc2c(C)c(OS(C)(=O)=O)ccc12", "hERG current change (%, negative = inhibition) at 1uM": 2.89}
{"smiles": "Cc1ccccc1C(=O)Nc1cccc(C(=O)N/N=C/c2ccccn2)c1", "hERG current change (%, negative = inhibition) at 1uM": 10.9}
{"smiles": "Cn1c(=O)[nH]c(=O)c2c1nc(N1CCCCC1)n2CC(O)COc1ccc([N+](=O)[O-])cc1", "note": "(stereo not shown)", "hERG current change (%, negative = inhibition) at 1uM": -31.5}
{"smiles": "Cl.Nc1c(Br)cc(Br)cc1CNC1CCC(O)CC1", "note": "(stereo not shown)", "hERG current change (%, negative = inhibition) at 1uM": -0.0639}
{"smiles": "Cc1ccccc1CN1CCN(c2nc3ccccc3s2)CC1", "hERG current change (%, negative = inhibition) at 1uM": 15.2}
{"smiles": "Cc1cc(-n2c(C)cc(C(=O)COc3ccccc3[N+](=O)[O-])c2C)no1", "hERG current change (%, negative = inhibition) at 1uM": -2.3}
{"smiles": "CCCCn1c(CNC(=O)CC)nc2ccccc21", "hERG current change (%, negative = inhibition) at 1uM": 8.18}
{"smiles": "CCN(CC)S(=O)(=O)c1ccc(O)c(NC(=O)c2cc(-c3cc(OC)c(OC)c(OC)c3)nc3ccccc23)c1", "hERG current change (%, negative = inhibition) at 1uM": -41.6}
{"smiles": "O=C(CSc1ccc([N+](=O)[O-])cn1)Nc1ccc(N2CCOCC2)c(Cl)c1", "hERG current change (%, negative = inhibition) at 1uM": 1.93}
{"smiles": "CCn1c(NCc2ccco2)nc2c1c(=O)n(C)c(=O)n2C", "hERG current change (%, negative = inhibition) at 1uM": -9.03}
{"smiles": "C=CCn1c(N(C)C)nc2c1c(=O)[nH]c(=O)n2C", "hERG current change (%, negative = inhibition) at 1uM": 6.06}
{"smiles": "Cc1ccc(CNC(=O)c2ccc(N3CCC4(CC3)CC(c3cccc(Br)c3)=NO4)c(NC(=O)c3c(Cl)cccc3Cl)c2)cc1", "hERG current change (%, negative = inhibition) at 1uM": 13.6}
{"smiles": "O=C(c1ccccc1)N1CCN(S(=O)(=O)N2CCCCC2)CC1", "hERG current change (%, negative = inhibition) at 1uM": 5.62}
{"smiles": "C/C=C(\\C)CN1CCN(c2ccc(C)cc2)CC1", "hERG current change (%, negative = inhibition) at 1uM": 7.31}
{"smiles": "CCOc1ccc(S(=O)(=O)N2CCC(C(=O)N3CCOCC3)CC2)cc1Cl", "hERG current change (%, negative = inhibition) at 1uM": 6.38}
{"smiles": "CC1CN(CCOc2ccccc2C(C)C)CC(C)O1.O=C(O)C(=O)O", "note": "(stereo not shown)", "hERG current change (%, negative = inhibition) at 1uM": 16.5}
{"smiles": "CC(C)NS(=O)(=O)c1ccc(OCC(=O)Nc2ccccc2F)cc1", "hERG current change (%, negative = inhibition) at 1uM": 13.6}
{"smiles": "Cc1cc(NC(=O)/C=C/C(=O)N(c2ccccc2C)C(C(=O)NC2CCCC2)c2ccc(F)cc2)no1", "note": "(stereo not shown)", "hERG current change (%, negative = inhibition) at 1uM": 12.7}
{"smiles": "CCC(C)c1ccc(S(=O)(=O)N2CCN(CC(O)CN3CCOCC3)CC2)cc1", "note": "(stereo not shown)", "hERG current change (%, negative = inhibition) at 1uM": -10}
{"smiles": "Cc1nnc(Nc2ccc(O)cc2)[nH]c1=O", "hERG current change (%, negative = inhibition) at 1uM": 19.5}
{"smiles": "Cc1sc2ncnc(N3CCC(C(=O)Nc4ccc(C#N)cc4)CC3)c2c1C", "hERG current change (%, negative = inhibition) at 1uM": 16.5}
